The target in this assay is Purified His6-tagged human heat shock protein 90 beta (Hsp90beta) (human, UniProt P08238). The assay is described as follows: fluorescence polarisation.

B1: Purified recombinant human apo-IDO1 (His6-IDO1), Alexafluor 647-labelled (enzyme)
chain: not shown
modifications: Alexafluor 647 on Cys groups
As for B1, the Kd worked out at 2500 ± 1800 nM.

The record behind these values is article PMC11389873 (Free radical biology & medicine, 2022).
